Assay results from article PMC5700166.
This is a selection; strong and weak results do not stand in their true shares. The list includes weakly bound sequences.

Columns and labels:
Assay in all cases: protein-binding microarray (PBM)
Settings in all cases: PBM: ~300 nM protein, 6 mM HEPES pH 7.8, 80 mM KCl, 0.5 mM EDTA, 0.5 mM EGTA, 6% glycerol, 35 ng/ul poly-dIdC, 1% milk, 1 h, room temperature; Ap Aiptasia and Nv Nematostella (sea anemones) / Co Capsaspora / Aq Amphimedon (sponge) / Dm Drosophila / Hu human; RHD is the Rel homology domain; high values mean tight binding; most listed sequences are background and not binding sites; double strand, one strand shown
[1] = molecular target: T1, GST-Ap-NF-kB RHD (UniProt A0A913YAJ5)
T1 sequence: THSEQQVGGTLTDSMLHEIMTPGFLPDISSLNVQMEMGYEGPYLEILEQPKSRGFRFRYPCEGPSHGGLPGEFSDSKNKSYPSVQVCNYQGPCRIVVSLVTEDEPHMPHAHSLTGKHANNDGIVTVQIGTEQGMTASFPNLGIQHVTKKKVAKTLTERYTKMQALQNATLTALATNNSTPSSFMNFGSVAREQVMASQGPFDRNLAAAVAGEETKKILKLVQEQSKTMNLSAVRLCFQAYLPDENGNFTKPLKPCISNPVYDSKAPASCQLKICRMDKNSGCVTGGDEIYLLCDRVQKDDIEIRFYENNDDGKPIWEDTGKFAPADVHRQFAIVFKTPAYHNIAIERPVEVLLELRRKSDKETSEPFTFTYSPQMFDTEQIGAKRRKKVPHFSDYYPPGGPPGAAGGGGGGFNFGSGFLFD

[2] = molecular target: T2, GST-Nv-NF-kB (Cys allele) (UniProt E5G601)
T2 sequence: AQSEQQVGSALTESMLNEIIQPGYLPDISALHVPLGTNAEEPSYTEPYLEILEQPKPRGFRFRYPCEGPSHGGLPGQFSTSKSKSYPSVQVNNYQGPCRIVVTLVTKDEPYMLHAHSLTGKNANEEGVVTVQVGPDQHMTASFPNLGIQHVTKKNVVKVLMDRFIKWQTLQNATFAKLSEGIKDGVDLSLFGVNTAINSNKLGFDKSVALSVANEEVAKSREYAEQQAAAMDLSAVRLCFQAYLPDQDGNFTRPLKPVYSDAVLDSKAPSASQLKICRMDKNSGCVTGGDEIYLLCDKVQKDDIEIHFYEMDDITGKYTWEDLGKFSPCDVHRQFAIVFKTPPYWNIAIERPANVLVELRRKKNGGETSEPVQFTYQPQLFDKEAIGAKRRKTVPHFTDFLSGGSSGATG

[3] = molecular target: T3, GST-Co-NF-kB (UniProt F1ARL5)
T3 sequence: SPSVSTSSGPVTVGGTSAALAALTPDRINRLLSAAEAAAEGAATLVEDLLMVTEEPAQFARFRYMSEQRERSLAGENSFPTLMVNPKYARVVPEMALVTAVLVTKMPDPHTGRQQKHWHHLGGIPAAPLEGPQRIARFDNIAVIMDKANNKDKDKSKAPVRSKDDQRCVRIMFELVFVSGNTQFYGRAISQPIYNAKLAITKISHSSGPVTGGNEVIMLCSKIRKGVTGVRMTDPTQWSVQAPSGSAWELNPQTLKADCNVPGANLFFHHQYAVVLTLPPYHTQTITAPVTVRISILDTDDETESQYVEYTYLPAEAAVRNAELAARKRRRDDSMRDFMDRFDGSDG

[4] = molecular target: T4, GST-Dm-Relish (UniProt Q94527)
T4 sequence: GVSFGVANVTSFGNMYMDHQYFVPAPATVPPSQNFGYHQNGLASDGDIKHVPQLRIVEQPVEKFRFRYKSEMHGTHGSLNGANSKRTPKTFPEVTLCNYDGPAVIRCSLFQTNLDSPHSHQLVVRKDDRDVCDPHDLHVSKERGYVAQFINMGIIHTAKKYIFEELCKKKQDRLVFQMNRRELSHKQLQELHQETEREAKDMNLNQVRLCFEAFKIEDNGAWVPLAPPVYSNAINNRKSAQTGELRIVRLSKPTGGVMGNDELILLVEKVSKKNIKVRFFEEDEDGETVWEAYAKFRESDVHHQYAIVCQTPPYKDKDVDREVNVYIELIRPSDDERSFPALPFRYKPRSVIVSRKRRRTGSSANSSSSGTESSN

[5] = molecular target: T5, GST-Aq-NF-kB (UniProt A9Y5G7)
T5 sequence: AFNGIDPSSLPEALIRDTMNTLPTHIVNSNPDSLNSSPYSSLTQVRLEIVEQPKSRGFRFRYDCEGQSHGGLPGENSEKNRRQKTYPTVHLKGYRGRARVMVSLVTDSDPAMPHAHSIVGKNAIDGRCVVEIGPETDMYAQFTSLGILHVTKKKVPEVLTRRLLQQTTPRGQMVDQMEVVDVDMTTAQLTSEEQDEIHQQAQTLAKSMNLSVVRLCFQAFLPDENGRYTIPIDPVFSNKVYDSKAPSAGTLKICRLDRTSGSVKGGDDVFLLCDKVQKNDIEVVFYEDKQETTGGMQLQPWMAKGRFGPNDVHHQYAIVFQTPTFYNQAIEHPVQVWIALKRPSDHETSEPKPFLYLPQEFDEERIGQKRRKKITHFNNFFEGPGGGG

Row | Sequence | binding signal [1] [z-score] | binding signal [2] [z-score] | binding signal [3] [z-score] | binding signal [4] [z-score] | binding signal [5] [z-score]
1 | CCGATTAACATCATGGATCAAGTTGATGTTAATCGGGTCTTGATTCGCTTGACGCTGCTG | -0.435 | 0.0692 | -0.881 | -0.292 | -0.485
2 | CCGATTAACATCAGCGCCGGGTTTGATGTTAATCGGGTCTTGATTCGCTTGACGCTGCTG | 0.0568 | -0.147 | 0.176 | -0.145 | 0.277
3 | CCGATTAACATCACTATCCTTGGTGATGTTAATCGGGTCTTGATTCGCTTGACGCTGCTG | -0.103 | 0.475 | 0.725 | 0.232 | -0.051
4 | CCGATTAACATCAAGGAGATTTGTGATGTTAATCGGGTCTTGATTCGCTTGACGCTGCTG | -0.289 | -0.104 | 0.486 | 0.231 | -0.208
5 | CCGATTAACATCAGCTACCGCTTTGATGTTAATCGGGTCTTGATTCGCTTGACGCTGCTG | -0.504 | -0.392 | 0.0444 | -0.498 | -0.793
6 | CCGATTAACATCAGACACCAACCTGATGTTAATCGGGTCTTGATTCGCTTGACGCTGCTG | -0.284 | 0.326 | -0.135 | -0.869 | -0.427
7 | CCGATTAACATCAACCTTGCTACTGATGTTAATCGGGTCTTGATTCGCTTGACGCTGCTG | 0.134 | -0.00414 | 0.0967 | -0.543 | -0.304
8 | CCGATTAACATCATTCCGCGGTGTGATGTTAATCGGGTCTTGATTCGCTTGACGCTGCTG | 0.479 | -0.467 | -0.781 | 0.205 | -0.142
9 | CCGATTAACATCATAAAGTCATGTGATGTTAATCGGGTCTTGATTCGCTTGACGCTGCTG | -0.451 | -0.048 | 0.605 | 0.166 | -0.415
10 | CCGATTAACATCAGAGAGTGTATTGATGTTAATCGGGTCTTGATTCGCTTGACGCTGCTG | -0.158 | 0.633 | 0.639 | -0.489 | -0.373
11 | CCGATTAACATCAATGGCAAGGTTGATGTTAATCGGGTCTTGATTCGCTTGACGCTGCTG | -0.424 | -0.675 | -0.101 | -0.269 | -0.351
12 | CCGATTAACATCAACACACTGCTTGATGTTAATCGGGTCTTGATTCGCTTGACGCTGCTG | -0.288 | -0.524 | -0.699 | -0.295 | -0.34
13 | CCGATTAACATCAGGGCAATCCATGATGTTAATCGGGTCTTGATTCGCTTGACGCTGCTG | 0.255 | -0.234 | -0.0643 | 0.0971 | 0.979
14 | CCGATTAACATCAAAACCGGACATGATGTTAATCGGGTCTTGATTCGCTTGACGCTGCTG | -0.141 | 0.327 | 0.015 | -0.164 | 0.158
15 | CCGATTAACATCAATGAGCTCTTTGATGTTAATCGGGTCTTGATTCGCTTGACGCTGCTG | -0.76 | 0.173 | -0.807 | -1.31 | -0.605
16 | CCGATTAACATCAACTAGTACATTGATGTTAATCGGGTCTTGATTCGCTTGACGCTGCTG | -0.0084 | 0.00852 | -0.156 | -0.0486 | -0.253
17 | CCGATTAACATCACTTGATAATCTGATGTTAATCGGGTCTTGATTCGCTTGACGCTGCTG | -0.732 | 0.0686 | -0.188 | -0.425 | -0.501
18 | CCGATTAACATCACTAGGGTGCATGATGTTAATCGGGTCTTGATTCGCTTGACGCTGCTG | 0.41 | 0.349 | 0.907 | 0.183 | 0.0272
19 | CCGATTAACATCACAAGAATTCCTGATGTTAATCGGGTCTTGATTCGCTTGACGCTGCTG | 0.193 | 0.0834 | -0.00652 | 1.19 | 0.657
20 | CCGATTAACATCATTAGACAACCTGATGTTAATCGGGTCTTGATTCGCTTGACGCTGCTG | 0.166 | 0.0429 | -0.0666 | -0.451 | -0.375
21 | CCGATTAACATCAGCTGAGTAGGTGATGTTAATCGGGTCTTGATTCGCTTGACGCTGCTG | 0.731 | -0.23 | -0.628 | 0.298 | 0.35
22 | CCGATTAACATCAATTTAGACGGTGATGTTAATCGGGTCTTGATTCGCTTGACGCTGCTG | 0.342 | 0.00547 | -0.287 | 0.00734 | -0.107
23 | CCGATTAACATCATTCTCATAGATGATGTTAATCGGGTCTTGATTCGCTTGACGCTGCTG | -0.264 | -0.677 | 0.0363 | -0.326 | -0.507
24 | CCGATTAACATCAGTCATTAAGATGATGTTAATCGGGTCTTGATTCGCTTGACGCTGCTG | -0.896 | 0.0111 | -0.402 | -0.625 | -0.291
25 | CCGATTAACATCAAGGCAGGCTGTGATGTTAATCGGGTCTTGATTCGCTTGACGCTGCTG | -0.583 | -0.473 | -1.26 | -0.695 | -0.509
26 | CCGATTAACATCAGGAAAAATCATGATGTTAATCGGGTCTTGATTCGCTTGACGCTGCTG | -0.468 | 0.0408 | 0.294 | 0.271 | 0.182
27 | CCGATTAACATCACGAATTTTCCTGATGTTAATCGGGTCTTGATTCGCTTGACGCTGCTG | -0.0362 | 0.245 | 0.94 | 0.17 | 0.426
